# The supplement of paper PMC3334620
# Whole data set: some 33,000 sequences, median “E-score (-0.5 to 0.5)” near -0.016, cut for the highest 2% near 0.32. Some of the results follow.
# Target: T1, Stp1 (UniProt B3LFK1)
# T1 sequence: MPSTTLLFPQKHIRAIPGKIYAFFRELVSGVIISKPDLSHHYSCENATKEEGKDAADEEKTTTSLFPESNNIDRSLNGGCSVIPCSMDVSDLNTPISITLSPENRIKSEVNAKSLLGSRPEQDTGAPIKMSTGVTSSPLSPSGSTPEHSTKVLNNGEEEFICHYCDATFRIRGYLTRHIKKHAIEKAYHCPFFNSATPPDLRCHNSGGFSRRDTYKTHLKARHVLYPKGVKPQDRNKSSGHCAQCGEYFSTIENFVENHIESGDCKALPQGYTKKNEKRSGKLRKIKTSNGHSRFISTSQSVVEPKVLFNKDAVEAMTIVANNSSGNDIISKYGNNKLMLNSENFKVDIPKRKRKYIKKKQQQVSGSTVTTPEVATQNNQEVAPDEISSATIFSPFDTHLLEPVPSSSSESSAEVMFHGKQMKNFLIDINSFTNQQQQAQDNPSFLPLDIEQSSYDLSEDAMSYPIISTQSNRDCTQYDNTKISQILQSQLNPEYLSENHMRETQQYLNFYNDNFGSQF
# Assay: PBM E-score (8-mer binding enrichment) (E-score (-0.5 to 0.5)); higher = stronger / more preferred TF binding; most listed sequences are background and not binding sites
# Details: protein concentration: 200 nM; construct: GST-full length
# Outline: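 The E-score, a modified Wilcoxon-Mann-Whitney statistic, was computed by the Universal PBM Analysis Suite for every ungapped eight-base word pooled with its reverse complement. Scans behind it were normalised with masliner after bound GST-tagged yeast transcription factors were detected with fluorescent anti-GST. The proteins, at about 100-200 nM, had been applied to universal all-10-mer Agilent arrays made double-stranded by primer extension.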
row,Sequence,PBM E-score
1,CCGTATCG,0.215
2,CCGCGCAG,0.221
3,CAGACGAG,-0.072
4,CGCTTAAC,0.12
5,CAAGTACG,-0.0705
6,ATCCTGCA,-0.159
7,AGTCCTCA,-0.0239
8,CGCAGACG,0.164
9,AGAAGCCC,-0.101
10,GGGCCCCA,-0.319
11,CATAGGTC,-0.12
12,GTGTTGAA,-0.113
13,AAGGTCCA,-0.213
14,GACCGATC,-0.164
15,ATTGAATG,0.0897
16,ACTATGCC,0.285
17,ATTACTCA,0.0321
18,CCAAATGC,-0.0633
19,AGTACTAT,0.029
20,ACAATGTC,-0.0146
21,AAAAGTGG,0.125
22,CCCTGCGG,-0.0552

row,Sequence,PBM E-score
1,AACACTCT,0.00778
2,AGCCAGTG,-0.177
3,ATCCGCCG,0.294
4,AGTTGTTA,0.0604
5,AAGCGTGT,-0.101
6,CGCTATAA,-0.0139
7,TCGGGTCA,-0.0927
8,TCTTAACA,0.0972
9,AAACGCTT,-0.0887
10,CACTTGAA,0.164
11,CGCATAGA,0.104
12,AATACATT,0.0399
13,CGAGACGC,0.0377
14,AGGAGCAT,0.0289
15,AGTTAACC,-0.1
16,AGATAAGA,0.0923
17,CTTACAGA,0.0714
18,AGCGCAGC,-0.112
19,CAATGCAG,0.12
20,CGTGACTA,-0.1
21,AATACCGA,-0.0374
22,ACTCTGAA,0.114

row,Sequence,PBM E-score
1,CTAATCGA,0.0651
2,CAGTCAAA,0.0898
3,ACAGGCAC,-0.047
4,ATAGAGAA,0.105
5,CCCGATGA,0.0203
6,TATGGCGA,0.0899
7,ATGATCTG,0.0371
8,AGGGACCT,-0.219
9,ACAACTGC,-0.0742
10,AAATACAT,-0.0457
11,ACATCAAT,0.115
12,CAAACCAC,0.108
13,GAAGTTAA,-0.0765
14,CCAAAGTA,-0.0727
15,AGGCTGAG,0.0428
16,CCGGGAGC,-0.31
17,CGACAAGC,-0.0737
18,CAACATCC,-0.053
19,CGCTGTGC,0.0982
20,GAAAAGGA,-0.0126
21,ATAGCCAG,-0.124
22,GGACAAAC,-0.0758

row,Sequence,PBM E-score
1,ATCAATGC,0.135
2,AACATCCA,-0.0261
3,AATAACAC,0.129
4,GACCAAGC,-0.0999
5,CCACCAAG,-0.24
6,AAACCCAG,-0.183
7,ACATCAAC,0.0681
8,ACGGGTCA,-0.225
9,ATGGAAAA,-0.0124
10,ACCTCCAA,-0.155
11,GAGCTAAA,-0.289
12,TCCTGCCA,-0.121
13,AAATTGAT,0.177
14,ATTTGTGA,0.0444
15,CCTGATCG,0.0158
16,ATCCCATC,-0.228
17,ATTTGGGA,-0.105
18,ACGTGCCT,0.278
19,ATCTTCGG,0.0436
20,GTTACAAC,0.156
